# In the supplement of paper PMC3334620:
# Whole data set: some 33,000 sequences, median “E-score (-0.5 to 0.5)” near -0.016, cut for the highest 2% near 0.32. Some of the results follow.
# Target: T1, Stp1 (UniProt B3LFK1)
# T1 sequence: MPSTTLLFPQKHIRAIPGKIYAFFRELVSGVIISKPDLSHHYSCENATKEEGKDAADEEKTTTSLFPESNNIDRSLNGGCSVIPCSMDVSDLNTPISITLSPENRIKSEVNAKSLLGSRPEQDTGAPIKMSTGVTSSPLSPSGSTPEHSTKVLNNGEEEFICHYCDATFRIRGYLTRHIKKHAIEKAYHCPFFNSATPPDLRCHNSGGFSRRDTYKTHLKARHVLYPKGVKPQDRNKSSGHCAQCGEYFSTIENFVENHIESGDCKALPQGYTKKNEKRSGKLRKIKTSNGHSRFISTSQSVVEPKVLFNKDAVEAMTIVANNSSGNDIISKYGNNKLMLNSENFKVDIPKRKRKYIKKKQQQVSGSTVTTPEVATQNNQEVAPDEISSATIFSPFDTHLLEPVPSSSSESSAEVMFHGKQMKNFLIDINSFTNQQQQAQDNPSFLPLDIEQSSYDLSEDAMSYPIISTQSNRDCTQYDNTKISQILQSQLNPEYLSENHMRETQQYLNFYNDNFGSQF
# Assay: PBM E-score (8-mer binding enrichment) (E-score (-0.5 to 0.5)); higher = stronger / more preferred TF binding; most listed sequences are background and not binding sites
# Conditions: protein concentration: 200 nM; construct: GST-full length
# Description: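 Universal 'all 10-mer' protein binding microarrays (Agilent AMADID 015681) probed with GST-tagged S. cerevisiae TFs (full-length or DBD) made by in vitro transcription/translation (PURExpress), about 100-200 nM. Bound TF was detected with fluorescent anti-GST. Each ungapped 8-mer (which stands for itself and its reverse complement) is scored by the PBM enrichment score (E-score), a modified Wilcoxon-Mann-Whitney statistic from -0.5 to +0.5, computed with the Universal PBM Analysis Suite. Scale: above 0.35 generally sequence-specific binding.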
row,Sequence,PBM E-score
1,CTCCTACC,-0.231
2,CAGCCTGG,-0.267
3,ATATCGGA,-0.0326
4,ATAAGCTA,0.131
5,CGCCAGTC,0.0457
6,ACTTGCAG,-0.108
7,CTTAACCC,-0.277
8,ATTGCGTC,-0.107
9,CACCCAAC,-0.157
10,AACTTATG,0.0958
11,CGTAATTC,0.078
12,AAAGTCTT,0.0164
13,TTGAAAAA,0.189
14,AGAGAAGA,-0.171
15,CCCCCAGA,-0.37
16,ACTCTACT,0.00683
17,ACGACGAA,0.167
18,AGTATGTC,-0.0239
19,GCCCAAAC,0.0362
20,GAAATATC,0.124
21,CACGGTCA,-0.0806
22,AAGTCAGA,-0.083
23,AAGCTTGA,-0.141
24,AGCCGGCC,0.0296
25,ACCTACTC,-0.103

row,Sequence,PBM E-score
1,AGGTAACT,0.0354
2,CCTCAAGA,-0.124
3,CCCTTTCC,-0.11
4,ACCAACAA,0.163
5,AAAGAGAA,-0.00174
6,CCGTGATC,-0.0429
7,ACCTTGCA,-0.101
8,ACCAGCGG,-0.085
9,GTATGCCA,-0.0419
10,AACGCGGT,0.0233
11,CAATCTTA,0.00266
12,ACTTTCCC,-0.174
13,CTTGTTTA,0.117
14,TCAACGAA,0.0664
15,AGCGAAAA,0.035
16,ATGGCCAG,-0.0726
17,AGTTCAAT,-0.0607
18,CCAAGAAC,0.0116
19,ACCTAATG,-0.206
20,CCGCCTAC,-0.0313
21,GCACACAC,-0.0691
22,GTCCACAA,-0.112
23,AAGTAATA,-0.0246
24,TCCTGAGA,-0.0508
25,AGAGGATC,-0.161

row,Sequence,PBM E-score
1,CCCAAAAA,0.0647
2,TAATCGTA,0.0362
3,ATGTCGAG,0.143
4,GGTCGAGA,-0.26
5,ATTGCGTG,-0.0299
6,ACGATCCG,-0.0174
7,ACCACAAG,-0.0807
8,CGGTCCGC,0.0007
9,TTAGCTAA,0.13
10,ACTACAAA,0.103
11,ATCGGATG,-0.033
12,GCGTACAC,-0.102
13,AACTGACT,-0.018
14,GCAAGCTA,-0.0537
15,ATTAGATC,-0.0764
16,CACCTACA,-0.0664
17,ATCTTTAC,0.0911
18,CAATACTG,-0.149
19,GATTCTGA,-0.00106
20,AACGTAAG,0.00659
21,CTTGCAGC,-0.0407
22,AGTCCCTC,-0.343
23,GGAAGGAA,-0.0797
24,AGCTAGCC,-0.143
25,CCTCAACC,-0.0827

row,Sequence,PBM E-score
1,AAGTGGGA,0.118
2,CTCTCGGC,-0.101
3,GCCCGAAC,-0.0752
4,ACTCCGTC,-0.169
5,AGAAAGCA,0.158
6,TGAAAACA,0.218
7,AACACAAG,0.0512
8,CTCCCGCA,0.0984
9,GACATCAA,0.00174
10,GGTAGTAC,-0.0938
11,ACCCACCC,-0.13
12,ACTTGTGA,-0.00935
13,AAGGTATG,0.0638
14,ATTCGAGA,0.0726
15,CTCAACAC,0.14
16,CAGGCGGC,0.3
17,CATATCGA,0.0637
18,GGTTGGGA,-0.157
19,AACACAGC,0.0278
20,CGGCTTGC,0.37
21,ATCTATAC,0.0531
22,CCACTCCC,-0.165
23,CTGACCCC,-0.379
24,ACCGTTGA,-0.134
25,CACTTCAG,-0.084

row,Sequence,PBM E-score
1,ACCGTACT,-0.0454
2,AATCCTCT,-0.232
3,ACACTTAT,0.025
4,CCGGATCA,0.0862
5,GTTGGCGA,0.0851
6,AATACGAT,0.0268
7,CCGATGCA,-0.136
8,ATACGCGA,-0.0124
9,ATACAGGG,0.051
10,CTCTACTA,0.0527
11,CAGTCTCG,-0.258
12,AGAAGAAG,-0.0809
13,CTCAGGCA,-0.0112
14,CCAGCTAG,-0.255
15,ATACCGCA,0.0172
16,CTGGTCCA,-0.166
17,CCTGTGCC,0.269
18,GATAGCGA,-0.19
19,CTTGCAAC,0.183
20,GCTGACAA,0.0719
21,AAAATCCC,-0.0359
22,AGTACGTG,-0.0504
23,ATCAACGC,0.172
24,GGTGCCCA,-0.0485
25,GCCGCAAC,0.366

row,Sequence,PBM E-score
1,ATACAGAG,0.0316
2,ACATCGGG,-0.321
3,GAACCTAC,-0.13
4,ACTTAGTA,0.175
5,CGCGGTCA,-0.0843
6,ACTTACAG,-0.0209
7,GTACTAGA,0.118
8,AAGCCTGA,-0.033
9,CATTCGTC,0.0341
10,CTAAGTCA,-0.00899
11,GGTTGGCA,-0.144
12,CTACGTGA,-0.264
13,CCCGAGAG,-0.169
14,CCCAACTA,-0.125
15,ATAGCTGC,0.102
16,GCGGGCAA,0.0705
17,AATTCGCC,0.206
18,AATCTAAC,-0.0282
19,TAACCATA,-0.0347
20,AGCATATC,0.0498
21,GCGTTTGA,0.0626
22,AATATTGT,0.216
23,ACTACGTA,0.055
24,ACACCATA,0.113
25,CCCATCTA,-0.169

row,Sequence,PBM E-score
1,ATGATCCA,-0.055
2,GATCCCAC,-0.0573
3,ATTTGCGC,0.182
4,AGTGTTAT,-0.0405
5,AATCTTAG,0.0858
6,TGGATCCA,-0.12
7,GGCGAAAC,0.157
8,GTAGATGA,0.0463
9,AAAGAGGG,-0.162
10,CTGCCATA,0.11
11,AGCGCTAC,-0.202
12,AACCATAC,0.0274
13,TGACTACA,0.0164
14,CAACTGCG,0.0222
15,CTCCCTCC,-0.256
16,GAGCAAAA,-0.0226
17,ATCCAGGA,-0.114
18,CACTACGC,-0.0748
19,AGATACTA,-0.0314
20,AGGCCCTA,-0.124
21,AGAGTCAC,-0.187
22,ACTAGTAA,0.0866
23,CACTTGGA,0.0573
24,CAGGTAGG,-0.11
25,GAACAGCC,-0.0958

row,Sequence,PBM E-score
1,ACATTCGG,-0.129
2,AATATTAT,0.199
3,CGTTAACC,0.0705
4,CGAAAACC,0.127
5,GACTGAAA,0.00466
6,AGCCATCA,-0.00725
7,GAGAAAGA,-0.0795
8,TCTAGGAA,-0.0515
9,ATACCATG,-0.0763
10,ACAAATCT,0.105
11,AGGAATAA,0.1
12,ACCTAAGA,-0.077
13,CCGATTTA,0.00012
14,ATGTATCC,-0.0581
15,GATGCGAA,0.12
16,ATTGGAAG,-0.113
17,GCACAATA,0.105
18,GGCTCGCA,-0.0457
19,ACCCTGCC,-0.211
20,CTGGTGAC,-0.232
21,GGAAAGCA,0.135
22,CAATAGTG,0.106
23,GGTGGAGA,-0.295
24,CAGATTGA,-0.0684
25,AGTAAGGG,-0.119

row,Sequence,PBM E-score
1,ATCTAGTG,-0.0846
2,AGAAACTG,0.0433
3,CTCCTGCC,-0.0537
4,GGCAATAA,0.177
5,CGACTTAA,-0.123
6,CGAACTGC,-0.0907
7,TGTCGAAA,0.0924
8,ACAAGACG,-0.152
9,CGCCTGGC,-0.0821
10,CATCCGTA,0.23
11,CCGCCAAG,-0.24
12,CACACGTG,0.231
13,GAGCACCA,-0.182
14,CAAGACTG,-0.14
15,AGGGGTGG,-0.205
16,GATCAAGC,-0.081
17,ACATGGTC,-0.131
18,CCTGAGCC,-0.0996
19,AAACCGCT,-0.0872
